# In the supplement of paper PMC11417369:
# ± gives the standard deviation of the averaged measurements. The list shows a part of the results.
# Test system: PfAP2-EXP AP2 domain (GST-tagged)
# Assay: gcPBM binding intensity (ln(normalized median fluorescence intensity)); higher = stronger DNA binding
# Summary of the method: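 DNA-binding domains from P. falciparum, fused to GST and produced in E. coli, were put on an Agilent 4 × 180k double-stranded probe array for 1 h in 1× PBS holding 1% milk, 0.2 mg/ml BSA, 0.5% salmon testes DNA and 0.03% Triton X-100. Probes were primer-extended, 36 bp long and drawn from intergenic genomic regions, with negative controls included. After Alexa488 anti-GST antibody detection and a 488 nm scan, binding intensity was set as the highest Masliner-normalised natural-log median intensity across replicate spots of either probe orientation.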
row,Sequence,gcPBM binding intensity (ln)
1,TTTTATTTTTCTAGTAGTACTTCTTTTTATAATATA [XGTACX_site1181],8.82 ± 0.49
2,ACACAAAAATAAAAATGTACAAATTAAAAAAAATGA [XGTACX_site2083],8.68 ± 0.45
3,TAAAAGGAACAAAATTGTACTTAAAAGACAAAGTTA [XGTACX_site7661],8.27 ± 0.26
4,TTTTTTTTTTTTTTGTCACACACCTTCATAAGAAAA [CACACA_site1166],8.43 ± 0.54
5,CACACCATATAATATATATATATGTATATATTTATA [CACACA_negctrl_site397],8.29 ± 0.28
6,ATCCTGAACAGAATATGTATAAACAGAAGGAAACAA [CACACA_negctrl_site1805],8.98 ± 0.42
7,ATATATATTAATAGTTGTACTATTATAATATTACAA [XGTACX_site1213],8.23 ± 0.25
8,TTTGTTCTATGGAGTTTAAAATGTAATATATATTAA [GTGCAC_negctrl_site151],8.45 ± 0.55
9,TAATAATAGAGACACACACACATTTTTAATAATACA [CACACA_site6691],8.66 ± 0.42
10,ATATATATATATATATATATATATATATTTATATAT [GTGCAC_negctrl_site180],10.1 ± 0.85
11,CTTTGTAGTTGGTCCACACACATATATGGAAGAATA [CACACA_site1280],8.88 ± 0.52
12,AGTACATTATAGAATACACACCTATATATATATATA [CACACA_site4447],10.1 ± 0.23
13,AATTATTAAATATGTACACACGTACATTTTATAAAT [CACACA_site5341],8.27 ± 0.18
14,TAATACATACACACATGTACATACAGAAATAAATAA [XGTACX_site3245],8.72 ± 0.46
15,TATTTTGTTCTTTCCACACACAAATACATATATTGT [CACACA_site4071],8.91 ± 0.35
16,AATATAAAAATGTTTACACACACACGGAAATATATT [CACACA_site7226],8.94 ± 0.47
17,ATATATATATGTGGATGTACATATATCTCTTATTAT [XGTACX_site1748],9.69 ± 0.11
18,TAAAATTAATAAAATATTTTCACTTAATATATATAA [CACACA_negctrl_site1550],8.28 ± 0.49
19,ATGTTGTACAAACACACACACAAAAAAAAAATAAAA [CACACA_site2406],8.59 ± 0.59
20,TTAATATTCCAGCTTTGTACATATATATATTATAAA [XGTACX_site7954],8.61 ± 0.46
21,TTAATGGAAAAATAGGCACACACACCGATATACATA [CACACA_site8356],8.84 ± 0.5
22,TGGCTTTCCCTGCCGGTGCATTAACATTTTTTACAT [GTGCAC_site9914],8.95 ± 0.23
23,TTTTACATAAATTATAAATATATAAAATAAAAAAAA [CACACA_negctrl_site1499],8.22 ± 0.54

row,Sequence,gcPBM binding intensity (ln)
1,CATATATATATTTTTTGTACATATATTTTTACATAT [XGTACX_site8419],8.81 ± 0.43
2,AAAAAGAAGAAGAAATGTACGTAACTATATATTTAT [XGTACX_site4362],8.8 ± 0.48
3,AAATAAATACTAGGCACACACACATATATATATATA [CACACA_site2079],10 ± 0.45
4,TATATGTTTAATTTCACACACAAATATGCATTTTAA [CACACA_site7881],8.59 ± 0.42
5,ATTGTAAGGAAACACACACACATATATATGTATATA [CACACA_site676],8.74 ± 0.35
6,ATTATTGTAATATTAGCACACATTACCTCACTACAA [CACACA_site2560],8.76 ± 0.32
7,ATTATTCAGGTAAAGTGTACAGGAGAAAAATAAAAT [XGTACX_site334],9.07 ± 0.32
8,ATATATATATATATATGTACGTATAATATATATATG [XGTACX_site2212],10.1 ± 0.37
9,CGCACCCAAATATATACACACATATATATATATATA [CACACA_site1651],10.1 ± 0.54
10,GGAAAATGAAAACAAGGTACACATAAGAACAAACAA [XGTACX_site1221],9.07 ± 0.77
11,AATAGGGTCATTCAAAAAAAAAAAAAATAATAATAC [CACACA_negctrl_site644],8.61 ± 0.46
12,AAATTTGCTTTACCAGTGCAAAAAAAAAAAAAAAAA,8.25 ± 0.18
13,TGTTTTTATCCTTATGGTACAGTATAATACTTACAG [XGTACX_site6381],8.72 ± 0.45
14,AAATCACATAAAAATAGTACTTTTTTTTTTTTTTTT [XGTACX_site2696],8.56 ± 0.25
15,AGTAGTCTGGAGAAGAGTACACAGTATCTGGTAGCT [XGTACX_site2042],8.48 ± 0.47
16,ACATTAACATTGTTGGTGCAAAATTAATATGTTTTT [GTGCAC_site9673],8.52 ± 0.13
17,TATTATATATATATATGTACATATTGTATGTTATAT [XGTACX_site5303],8.54 ± 0.35
18,TTTTTTTCAATATTTGCACACGATTAAAATATTTAA [CACACA_site5266],8.63 ± 0.18
19,CAAACATATTAATGTACACACACCCACCCACAAACA [CACACA_site2752],9.59 ± 0.65
20,TATGTGAATATTGAGGTGCGGTTGTTAAAATTTATA [GTGCAC_site9915],8.64 ± 0.27
21,TTAAATATTTTTTATACACACATTTCTTATTTAACT [CACACA_site229],8.45 ± 0.49
22,TAATTATTATTAATAGTACACACTATGGCATTTCAA [CACACA_site2488],8.36 ± 0.36
23,TTTATTTATAGGTATACACACTTTAATTAAAAGTTG [CACACA_site7232],8.51 ± 0.44

row,Sequence,gcPBM binding intensity (ln)
1,CCTAAAGTGTAAAATTCACACACATATATATATATA [CACACA_site8385],10.2 ± 0.44
2,TTTATTTTTGAAGTTGCACACACAAAAATAAAAAGT [CACACA_site8030],8.66 ± 0.36
3,TGATAATATTATATATGTACATATATGTATATTTTT [XGTACX_site7193],8.37 ± 0.37
4,ATGAAACACTCCATAGTGCAAAATATATATTATATT,8.93 ± 0.32
5,CTATTTTTCCTGAAATGTACAAGAATTTTATTTGAT [XGTACX_site8867],8.28 ± 0.25
6,CAAAAATAATTTAGGTGTACAAATTTGACAAAAAAA [XGTACX_site188],8.85 ± 0.3
7,AATTCAATTGAGCAAAATTCAAATAAATTAAAAAGA [XGTACX_negctrl_site71],8.35 ± 0.5
8,TTGGTATATTATAAAAGTACACATAATAAAAAATTT [XGTACX_site7985],8.57 ± 0.36
9,ATATGGGTGAACATATGTACATATATATATTGATAA [XGTACX_site8438],8.89 ± 0.37
10,ATTATTACTTTTTGAGTGCACATACACACAGACATA,9.195 ± 0.064
11,ATAACTATAATAATCATACACACCAAAGAGAATATT [CACACA_site6970],8.57 ± 0.13
12,ATTTTTCATTCTGGACATGTTACCATTATATATATG [CACACA_negctrl_site61],9.12 ± 0.46
13,TTTTGTTTAAAAAAAAAAAACAAAAAAAAGCAATTA [CACACA_negctrl_site314],8.32 ± 0.51
14,ATTAAAAAAATATACGCACACAAAATGTAATAACAA [CACACA_site2439],8.74 ± 0.35
15,TAATTTGTTATGTATTGTACAAATAATATATGATAT [XGTACX_site1985],8.6 ± 0.28
16,TTACATAATTTATGTACACACGCAAATACTTATAAT [CACACA_site4331],8.7 ± 0.33
17,GTATTATCTGCTTTTTGTACACATATATTTAAAAAA [XGTACX_site7603],9.18 ± 0.26
18,TTCTGTGTGTATTGGCGTACAATTATTTTGCCTACA [XGTACX_site205],8.96 ± 0.38
19,ACATTCACAAAATTTTGTACACATATATATATATAT [XGTACX_site3518],10 ± 0.26
20,AAAAGGAATTATAGGAAATAAATATATACAAATATA [TGCATGCA_negctrl_site528],8.53 ± 0.39
21,CGATTTTTTAAGTTTGTGCACTTAAAAACTATAACA,8.675 ± 0.007
22,CCATTTGATAATAATGCACACCACATATATTTATAT [CACACA_site9002],8.805 ± 0.035
23,TATTTCAAAATAAAATAAAATATATATATATGTATA [XGTACX_negctrl_site416],8.33 ± 0.21

row,Sequence,gcPBM binding intensity (ln)
1,TATACTATACAACACATACACACAAAAAAAAAAAAA [CACACA_site537],8.43 ± 0.59
2,TATATGTCAATATCTACACACATATAGGTAATTATT [CACACA_site7475],8.42 ± 0.52
3,TTTATTTATTAAGAATGTACATGTATTTGTTAAATA [XGTACX_site4465],8.34 ± 0.23
4,TAAATCATGGGATAAGCATGCGCGCACATGTTTGTT [TGCATGCA_site768],8.79 ± 0.3
5,ACCCACGTAAATTAAGCATGCCTTCCGTTATATTTA [TGCATGCA_site365],9.28 ± 0.56
6,TTTTACTAAATATATACACACATTATGCATATATAT [CACACA_site3287],8.51 ± 0.38
7,TTTTTTTTTTATAAGGCACACATGAATATTTATACA [CACACA_site1316],8.55 ± 0.014
8,TATGTGAATATAATCACACACAATACGGAAAGAGAC [CACACA_site7311],9.46 ± 0.28
9,TATATGTAATATTATACATGCATACATAATATATAT [TGCATGCA_site558],8.6 ± 0.26
10,AATGTGATAATATACACACACGCATATATATATATA [CACACA_site323],10.2 ± 0.2
11,AAAACACTTATGGATTGTACAATAAAAATTATATTA [XGTACX_site7042],8.71 ± 0.45
12,CTGTGTAATTTAAATTGTACGTTTGAAAAAAATAAA [XGTACX_site5667],8.62 ± 0.3
13,TTTTAAAGAAAAAAATGTACAAAATTTTTATTTTAA [XGTACX_site1496],8.02 ± 0.28
14,AGGAGGATATTACACAGTACCCAGGAAATCTACGGA [XGTACX_site4878],8.38 ± 0.59
15,TATTTTATAAATACAAGTAAAATTAAATATATAATA [XGTACX_negctrl_site221],8.44 ± 0.33
16,TTGTACTACAATCCTTTATTTATTTAAACCTGTATG [CACACA_negctrl_site428],8.66 ± 0.19
17,TATATAAATAGACACACACACACATATAAATAAATA [CACACA_site7855],8.82 ± 0.45
18,TTTCAATGCATAAAAGTGCGCAATAATTTAAAGATC,9.11 ± 0.33
19,ACATATGTATAATAATGTACGCATTAAATATAATTA [XGTACX_site7851],8.55 ± 0.37
20,AAACAAATGTACAAAGTGCATATTTTTTTCAAAAGG,8.28 ± 0.18
